IC50 is the fitted dose that halves viability relative to control wells, and lower means more sensitive; fits outside the tested doses are given as limits. For AUC the same curve is integrated over the 256-fold range of doses and scaled to a fraction; values near 1 show little effect. For part of these data: Any top dose called inferred was derived from the fitted curves, not read from the paper.
Key:
Assay in all cases: Viability of human cancer cell lines after 72 h of drug (GDSC screen)
NPK76-II-72-1 = compound: COc1cc(C(=O)NC2CCN(C)CC2)ccc1Nc1ncc2c(n1)N(C1CCCC1)C(C)CC(=O)N2C [NPK76-II-72-1]; conditions: top dose 10.24 µM; top dose inferred
Experimental: (§1)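 Human cancer cell lines in 384-well plates, medium with 10% serum, drug for 72 h over a 256-fold dose range (nine 2-fold or five 4-fold steps up to the top dose). Adherent lines were fixed and stained with the nucleic acid dye Syto60, suspension lines read with resazurin; signal relative to control wells, capped at 0 and 100%. One two-parameter sigmoid per drug and line, fitted in a mixed model over all curves with the slope shared within a line.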

YK 4-279 = compound: COc1ccc(C(=O)CC2(O)C(=O)Nc3c(Cl)ccc(Cl)c32)cc1 [YK 4-279]; conditions: top dose 10 µM
Experimental: as §1

BMS-345541 = compound: Cc1ccc2nc(NCCN)c3ncc(C)n3c2c1 [BMS-345541]; conditions: top dose 16 µM
Experimental: as §1

AZD7762 = compound: NC(=O)Nc1cc(-c2cccc(F)c2)sc1C(=O)N[C@H]1CCCNC1 [AZD7762]; conditions: top dose 2 µM
Experimental: as §1

GSK-650394 = compound: O=C(O)c1ccc(-c2c[nH]c3ncc(-c4ccccc4)cc23)cc1C1CCCC1 [GSK-650394]; conditions: top dose 16 µM; top dose inferred
Experimental: as §1

XAV 939 = compound: Oc1nc(-c2ccc(C(F)(F)F)cc2)nc2c1CSCC2 [XAV 939]; conditions: top dose 5 µM; top dose inferred
Experimental: as §1

Bexarotene = compound: C=C(c1ccc(C(=O)O)cc1)c1cc2c(cc1C)C(C)(C)CCC2(C)C [Bexarotene]; conditions: top dose 8 µM
Experimental: as §1

Cell Line	AUC (NPK76-II-72-1)	IC50 (NPK76-II-72-1) [µM]	AUC (YK 4-279)	IC50 (YK 4-279) [µM]	AUC (BMS-345541)	IC50 (BMS-345541) [µM]	AUC (AZD7762)	IC50 (AZD7762) [µM]	AUC (GSK-650394)	IC50 (GSK-650394) [µM]	AUC (XAV 939)	IC50 (XAV 939) [µM]	AUC (Bexarotene)	IC50 (Bexarotene) [µM]
A427 (non-small cell lung carcinoma, adherent)	0.878	> 10.2	0.713	2.51	0.917	> 16	0.569	0.193	0.576	1.62	0.95	> 5		
CADO-ES1 (Ewing sarcoma, suspension)	0.894	> 10.2	0.813	5.54	0.725	4.43	0.95	> 2			0.985	> 5		
CCRF-CEM (lymphoblastic leukaemia, suspension)	0.487	0.593	0.786	3.59	0.886	12.8	0.338	0.0483			0.985	> 5	0.905	7.77
COR-L321 (lung, suspension)	0.779	4.19	0.884	> 10	0.856	12.9	0.97	> 2			0.953	> 5		
EMC-BAC-1 (lung adenocarcinoma, adherent)	0.748	3.69	0.603	1.25	0.804	9.36	0.595	0.236			0.913	> 5		
EMC-BAC-2 (lung adenocarcinoma, adherent)	0.941	> 10.2	0.667	2	0.856	> 16	0.608	0.261			0.796	2.84		
ESO26 (oesophagus, adherent)	0.641	1.53	0.806	4.74	0.716	3.9	0.725	0.522			0.988	> 5		
ESO51 (oesophagus, semi-adherent)	0.944	> 10.2	0.916	> 10	0.817	14.1	0.526	0.151			0.973	> 5		
HL-60 (acute myeloid leukaemia, suspension)	0.847	6.43	0.857	6.82	0.883	14.1	0.641	0.294	0.94	> 16	0.98	> 5		
HeLa (cervix, adherent)	0.944	> 10.2	0.629	1.39	0.902	> 16	0.751	0.631	0.742	4.75	0.899	> 5		
JHOS-3 (ovary, adherent)	0.954	> 10.2	0.894	> 10	0.915	> 16	0.78	1.07			0.912	> 5		
KMS-11 (myeloma, suspension)	0.879	7.92	0.629	1.34	0.841	8.84	0.568	0.186			0.987	> 5		
KYAE-1 (oesophagus, suspension)	0.762	4.04	0.974	> 10	0.87	> 16	0.776	0.888			0.978	> 5		
LN-229 (glioma, adherent)	0.985	> 10.2	0.703	2.32			0.698	0.449	0.956	> 16	0.983	> 5	0.975	> 8
MCF7 (breast, adherent)	0.986	> 10.2	0.786	4.48	0.982	> 16	0.936	> 2	0.555		0.976	> 5		
MDA-MB-468 (breast, adherent)	0.866	8.53	0.75	3.16	0.895	> 16	0.778	0.778			0.978	> 5	0.967	> 8
MOLT-13 (T-cell lymphoblastic leukaemia, suspension)	0.254	0.141	0.625	1.32	0.736	4.26	0.718	0.472			0.984	> 5		
NCC021 (kidney, adherent)	0.917	> 10.2	0.779	4.8	0.957	> 16	0.744	0.713			0.947	> 5		
NCI-H358 (lung adenocarcinoma, adherent)	0.732	3.18	0.792	5.1	0.748	5.64	0.797	1.07	0.749	5.69	0.965	> 5		
OACM5-1 (oesophagus, semi-adherent)	0.52	0.733	0.961	> 10	0.737	5.25	0.952	> 2			0.983	> 5		
OACp4C (oesophagus, adherent)	0.564	0.995	0.828	7.93	0.83	12.9	0.5	0.125			0.941	> 5		
OC-314 (ovary, adherent)	0.648	1.54	0.622	1.29	0.893	14.3	0.594	0.217			0.983	> 5		
OV-17R (ovary, adherent)	0.891	> 10.2	0.813	8.38	0.893	> 16	0.649	0.382			0.848	> 5		
OV-56 (ovary, adherent)	0.98	> 10.2	0.772	3.7	0.884	> 16	0.698	0.438			0.984	> 5		
